The text below walks through data of PubChem BioAssay (NCI).

Structures are written as SMILES. The source holds several records for some structures; these can differ, active in one and inactive in another.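 Note: values are percent growth. 100 is the growth of untreated cells, values between 100 and 0 indicate rising inhibition; between -100 and 0 indicates cell death.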 Certain results were filed several times, with different values. Only these are listed. How the source made its calls: active means growth percent below 10; inactive means the rest. An entry can have further records. This drug was run again and again over the years, at its own concentration, as given; one value stands for one run. Counts like (3×) say how often a value occurs here.

Experiment [1] concerns SK-MEL-2 melanoma. Put plainly: NCI-60 one-dose screen, 48 h (100 = growth as untreated, 0 = no growth, -100 = all killed). The settings on record: 25 µM.
Experiment [2] relates to SN12C renal. Described as above. Conditions: 0.25 µM.

With `COc1cccc2c1C(=O)c1c(O)c3c(c(O)c1C2=O)C[C@@](O)(C(=O)CO)C[C@@H]3OC1CC(N)C(O)C(C)O1` (stereo not given in full), the growth entry in experiment [1] (runs of 1992) was “active: -93.7 (2×), -92.4, -96.5, -94.2, -96.1, -92.5 (2×), -90.8 (2×), -92.6 (2×), -91.2, -93.8 (3×), -94.1 (3×), -98 (4×), -80.4, -97.2 (2×), -95.3, -94.5, -78, -95.5, -92.1, -91.5, -93.9, -88.3 (2×), -91.6, -82.7, -78.4, -90.4, -90.7, -76.3, -89.4, -91.4, -90.1, -97 (2×), -99.9, -95.8, -99.4, -82.8, -100 (10×), -95.2, -89.1, -71.8, -78.6, -89.6, -95.1, -96.7 (2×), -94.6, -84.8, -97.8 (2×), -97.6, -91, -79, -95.6, -96 (2×), -97.7, -96.9, -92.7, -66.3, -96.4 (2×), -96.3, -98.7 (2×), -99.8, -86.8, -95, -89.3, -88.2, -88.5, -88.4, -85.4, -98.8, -97.9, -98.3 (2×), -87.2, -99.7, -93.2, -97.3, -98.1, -89.5, -88.8, -99.2, -98.9, -89, -94.3, -83.1, -93.4, -94.8, -63.1, -72.1, -90.6%”; in experiment [1] (runs of 1993), “active: -91.5, -72.7, -75.7, -95.1, -78.7, -91.4, -94.8, -95.4 (2×), -61.6, -67.1, -100, -86.2, -75.1, -73.9, -87.5, -69.1, -87.6, -52.3, -82.2, -97.4, -74.4, -86.7, -50.3, -81.2, -53.8, -46.1, -60.4, -83.7, -93.9, -99.1%”; in experiment [1] (runs of 1994) it was “active: -46.9, -76.4, -50.4, -91.1 (2×), -97.4, -84.4, -89.1, -99.3, -62.5, -92.9, -47.5, -90.9, -45.7, -76.1, -46.4, -86.5, -89.5, -89.7, -83.4, -53.8, -71.8, -82.7, -61% and inactive: 110%”; in experiment [1] (runs of 1995), “active: -75.5, -91, -56.4, -61.3, -70.5, -90.8, -89.9, -98.2 (2×), -75, -95.1, -99.7, -80, -85.5, -91.4, -96.7, -84.5, -99, -97.3, -68.4, -56, -58.5, -86.3, -29.4, -92.8, -34.2, -88.3, -55.2, -61.2, -100, -86.6, -84.7, -97.6, -99.8, -90.7, -93.7%”; in experiment [1] (runs of 1996), “active: -34.7, -55.9, -98.3 (2×), -87.3, -63.9, -99 (2×), -96 (2×), -91, -99.1, -73.4, -54.7, -84.2, -86.1, -77, -57.2, -86.5, -66.6, -90.1, -47.6, -63.6, -98.9, -79.4, -68.3, -66.7 (2×), -54.1, -64.4, -47.9, -75.1, -75.8, -82.2, -71.5, -56.7, -69.5, -86.7, -94.9, -87.4, -92.6 (2×), -83.9, -52.1, -64.2, -38.3, -97, -54.5, -92.5, -95.7, -26.8, -76.2, -67.2, -96.9, -41.4, -17.5, -84.6% and inactive: 99.7%, 114%”; in experiment [1] (runs of 1997) it was “active: -86.3, -28.7, -58.3, -99.1, -92.4 (2×), -90.3, -83.9, -88.7, -93.3, -91.1, -94.8, -55.9, -82.2, -88, -89.3, -97.9, -79.8, -62.5, -99.2, -78.9, -34.4, -46.8, -90.7, -87.5, -46.5, -96.3, -98, -73, -76, -36.7, -76.4, -70, -54.9, -38.4, -81, -39.1, -67.4, -75.6, -73.8, -31.4, -44.6, -63.7, -82.5%”. Moreover, the growth entry was “active: -71.4, -77.9, -76.7, -67.9, -96.5, -73.3 (2×), -62.8, -67.4, -95.3, -76.5, -34.1, -89, -51.4, -78.4, -69.6, -72.1, -42, -76.4, -85.8, 2.81, -64.8, -50.4, -58.1, -29%” in experiment [1] (runs of 1998); “active: -90.5, -59.1, -59.4, -84.2, -92.1, -82, -95.6, -70.2, -83, -27.9, -80.8, -69.3, -45.2, -80.2, -89.2, -95, -53.3, -93.8%” in experiment [1] (runs of 1999); “active: -100% (2×), -78.6%, -92.2%” in experiment [1] (runs of 2000); “inactive: 31%, 21.4%” in experiment [2] (runs of 2006); “inactive: 31.2 (2×), 10.3, 26.5, 26.1, 29.8, 28.3 (2×), 33.4, 34.4, 25.3, 35.4, 20.1, 36.2, 12.9, 30.4, 23.8, 21.5, 26.6, 29.9, 17.4, 27.8, 25.8 (2×), 21.2, 39.3, 30.2, 29.2, 26.2, 43.8, 27, 41.9, 31.3, 21.3, 25.2, 24.2, 35.1%” in experiment [2] (runs of 2007); “inactive: 30.9, 26.6 (2×), 28.3, 22.7, 21.2, 26.5 (2×), 34.6, 27.5, 24.4, 30.8, 28.9, 28.5, 18.9, 21, 22.6 (2×), 19.4, 24.8, 16, 29.9, 93.8, 26.8, 22.1 (2×), 14.1, 20.7, 13.8, 20.8 (2×), 15.1, 13.5, 23, 18.1, 27.4, 26.3, 25.2, 30.7, 22.4, 39.6, 32.3, 24.3, 23.8, 26.7, 33.3, 26.9, 23.4% and active: 9.8%” in experiment [2] (runs of 2008). Besides, the growth result is “inactive: 13, 18.2, 31.1, 26.5 (2×), 24.3, 23.3, 27.8, 35.3, 30.4, 25.5 (3×), 27.5, 30.6, 27.1, 20.9, 22.6 (2×), 21.3 (2×), 26, 23, 21.5, 29.2, 34.1, 25.1 (2×), 24.9, 18.1, 27.2, 25.8, 28.3, 34, 29.6, 18.7, 20.7, 30.2, 25.9 (2×), 12.4, 23.1, 14.7, 12.5, 13.7, 16.4, 10.2, 26.6, 15.4, 12.3, 31.4, 12.8, 36.4, 38.8, 26.3, 20.3, 18.9, 33.3, 21.7 (2×), 34.2, 24.1, 27, 22.4, 20.5% and active: 2.29%, -21.4%” in experiment [2] (runs of 2009); “inactive: 21, 27.4 (2×), 29.9, 20.4, 20.5 (2×), 37.3, 28.3, 20.9, 30.3 (3×), 31.5, 24.8, 32.4, 23.4, 32.1, 23.9 (2×), 22.2, 24.9, 26.4 (2×), 25.3, 15.8, 31.9, 27, 26 (2×), 38, 22.5, 25.5, 26.1, 22.7, 19.2, 27.9, 33.2, 29.1, 24.2 (2×), 18.5, 27.7, 28.2, 31.4, 23.8, 27.3%” in experiment [2] (runs of 2010); “inactive: 22.4, 24.1, 29.6 (2×), 36.5, 34.8, 24.8 (2×), 16.5, 27.5, 23.9 (2×), 30.3, 26.6, 27, 24.2, 27.3, 29.1, 25.9 (2×), 20.3, 25.1 (3×), 26.5 (2×), 38.5, 33.6, 35.3, 31.2, 30.9 (2×), 20.8, 16.3, 19.9, 19.7, 19.5, 18.7, 17.9, 19.2, 23, 21.7, 22.2, 23.1, 23.7, 25.3, 21.3, 26.1, 28.3, 26.4, 18.5, 21.8, 19, 22.6, 28.8%” in experiment [2] (runs of 2011).
